# In PubChem BioAssay AID493208 (National Center for Advancing Translational Sciences (NCATS), 2011):
# The whole screen tested about 44,000 compounds, of which about 340 (0.77%) were called active. Roughly 5% stayed inconclusive and do not appear here. Calls come from the whole dose curve; as a rule, active = well fitted inhibition curve with a large enough effect; inconclusive = small, poorly fitted or top-dose-only effect; inactive = flat fitted curve, though single readings scatter. The list shows a part of the results.
# Experiment: Acumen qHTS Assay for Inhibitors of the mTORC1 Signaling Pathway in MEF (Tsc2-/-, p53-/-) Cells: Sytravon;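 note: plate controls were DMSO for no effect and rapamycin for full effect; nearly all actives have a fitted effect of over 50% in size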
# Conditions: phospho-rpS6 immunofluorescence/PI, 24 h; series mostly up to 38.3 µM; activity change, negative = inhibition: at the top concentration
# Summary of the method: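 Readout is phospho-S6 Alexa 488 signal normalized to PI per well, reported as % active cells with thresholds set from rapamycin (7.5 nM) and DMSO controls. Cells: Tsc2-/-, p53-/- MEFs, 24 hrs compound at 37 C; PI cell number serves as viability.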
row,SMILES,"activity change, negative = inhibition"
1,O=C(Nc1ccc2nc(SCC(=O)N3CCCC3)sc2c1)c1cccc(Br)c1,inactive: -7.81%
2,Cc1cc(C)cc(N2C(=O)CSC23C(=O)N(CC(=O)Nc2ccc(F)cc2F)c2ccccc23)c1 (stereo unspecified),inactive: 4.37%
3,CCCCc1nn2c(=O)cc(COC(=O)c3ccc(NC(=O)CCc4ccccc4)cc3)nc2s1,inactive: 0%
4,CCOCCCN1C(=O)c2[nH]nc(-c3ccccc3O)c2C1c1ccc(CC)cc1 (stereo unspecified),inactive: -19.7%
5,CCOC(=O)c1oc2c(c1C)-c1nn(Cc3c(F)cccc3Cl)cc1CC2,inactive: -0.416%
6,CCCCN(C)S(=O)(=O)c1ccc(C(=O)Nc2sc3c(c2C(N)=O)CC(C)(C)NC3(C)C)cc1,inactive: 0.0542%
7,CCCc1ccc(-c2ccc(C(=O)Oc3ccc(OCC)cc3)cc2)nc1,inactive: -9.38%
8,Cc1ccc(CCNC(=O)CS(=O)Cc2nc(-c3ccccc3C)oc2C)cc1 (stereo unspecified),inactive: -4.93%
9,Cc1c(CCC(=O)NCc2cccc(Cl)c2)c(=O)oc2c(C)c(O)ccc12,inactive: 0.491%
10,CCN(Cc1ccccc1)C(=O)Cn1c(=O)n(-c2ccc(Cl)cc2)c(=O)c2c(C)c(C(=O)N(C)C)sc21,inactive: 0.562%
11,O=C(Cn1cnc2c(oc3ccccc32)c1=O)Nc1ccc(F)cc1F,inactive: -10.1%
12,O=C(CSc1nc2c(oc3ccccc32)c(=O)n1Cc1ccco1)Nc1ccccc1Cl,inactive: -0.283%
13,O=C(Cn1ncc2c3ccccc3n(Cc3cccc(Cl)c3)c2c1=O)NCc1cccs1,inactive: -2.18%
14,CCc1ccc(OCc2nc(-c3ccc(OC)cc3)no2)c(Br)c1,inactive: 3.77%
15,O=C(Nc1nc2ccccc2s1)c1ccc(S(=O)(=O)N2CCCC2)cc1,inactive: -0.48%
16,O=S(=O)(c1ccc2nc(NCc3ccccc3Cl)ccc2c1)N1CCCCC1,inactive: -15.7%
17,CCOc1ccc(C2C(=O)N(C3CCCCCC3)CC(=O)N2CCc2ccc(OC)c(OC)c2)cc1OC (stereo unspecified),inactive: 11.4%
18,CC(CNC(=O)c1ccc(CSc2nc3ccncc3n2Cc2ccccc2)cc1)c1ccccc1 (stereo unspecified),inactive: -14.7%
19,COc1ccc(CNC(=O)CSc2nc(-c3ccc(OC)c(OC)c3)cc(C(F)(F)F)n2)cc1,inactive: -26%
20,COc1cc(Cl)c(NS(=O)(=O)c2ccc(-c3cnc(C4CC4)o3)cc2)c(OC)c1,inactive: -29.3%
21,CCCC12CN3CC(CCC)(CN(C1)C3c1ccccc1)C2=O (stereo unspecified),inactive: 6.77%
22,CCOC(=O)c1cc(S(=O)(=O)N2CCN(c3ccc(C(C)=O)cc3)CC2)[nH]n1,inactive: 3.93%
23,CCOC(=O)c1ccc(NC(=O)NCCOCCn2c(=O)oc3ccccc32)cc1,inactive: -0.847%
24,CCS(=O)(=O)c1nc(S(=O)(=O)c2ccc(C)cc2)c(NCCCOC)s1,inactive: -15.9%
25,CCn1c(CNC(=O)c2ccc(OC)cc2)nnc1SCC(=O)Nc1ccc(C)cc1,inactive: 2.28%
26,Cc1cc2oc3c(c(=O)c2cc1C)C1(C(=O)N(C)c2ccccc21)N(CCO)C3=O (stereo unspecified),inactive: 6.58%
